# Results as given in the supplement of paper PMC10037445.
# Where “and” joins values, the source holds several entries; their conditions need not be identical. Equal entries are not always repeated. ± gives the standard deviation of the averaged measurements. Over roughly 2,900 compounds, “IRF Lucia reporter activity, fold change vs agonist alone” has its median near 0.9; the highest 2% begin near 2.8. The list shows a part of the results.
# Tests used:
# RAW-Dual [1] = assay: IRF Lucia reporter activity, fold change vs agonist alone; cytotoxicity flag (confluency mask): not cytotoxic; higher = enhanced IRF activity
# In short: (§1)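 Reporter activity is given as fold change relative to agonist-alone wells. To measure it, 50 nL of library stock was pin-tooled onto RAW-Dual macrophages (50,000 cells/well, DMEM, 384-well plates), a PRR agonist followed 1 h later, and cells stayed at 37 °C, 5% CO2. Twenty hours on, supernatant was assayed for IRF (QuantiLuc luminescence) and NF-κB (QuantiBlue, 620 nm absorbance), and wells under 70% of agonist-control IncuCyte confluency in both mask sets were marked cytotoxic.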
# RAW-Dual [2] = assay: IRF Lucia reporter activity, fold change vs agonist alone; higher = enhanced IRF activity; settings: library stock concentration (final ~1000-fold dilution): 10 mM, agonist: MPLA (TLR4) […]
# In short: as §1
# RAW-Dual [3] = assay: IRF Lucia reporter activity, fold change vs agonist alone; cytotoxicity flag (confluency mask): cytotoxic (confluency <70% of control); higher = enhanced IRF activity
# In short: as §1
# [4] = agonist: 3'3'-cGAMP (STING) 10 ug/mL
# [5] = cytotoxicity flag (confluency mask): not cytotoxic
# [6] = cytotoxicity flag (confluency mask): cytotoxic (confluency <70% of control)
structure (smiles),measurement,setting,value
CC1(C)CC[C@]2(C(=O)n3ccnc3)CC[C@]3(C)[C@H](C(=O)C=C4[C@@]5(C)C=C(C#N)C(=O)C(C)(C)[C@@H]5CC[C@]43C)[C@@H]2C1 (library stock concentration (final ~1000-fold dilution): 10 mM),IRF Lucia reporter activity,RAW-Dual [1]; [4],0.0101
same,IRF Lucia reporter activity,RAW-Dual [1]; agonist: LPS (TLR4) 0.1 ug/mL,0.01
C=CC[N+]1(C2CC3C4CCC5CC(O)C(N6CCOCC6)CC5(C)C4CCC3(C)C2OC(C)=O)CCCC1 (stereo not given),IRF Lucia reporter activity,RAW-Dual [2]; [5],0.908
C=CC[N+]1(C2CC3C4CCC5CC(O)C(N6CCOCC6)CC5(C)C4CCC3(C)C2OC(C)=O)CCCC1 (stereo not given) (library stock concentration (final ~1000-fold dilution): 10 mM),IRF Lucia reporter activity,RAW-Dual [1]; [4],0.97
same,IRF Lucia reporter activity,RAW-Dual [1]; agonist: LPS (TLR4) 0.1 ug/mL,0.932
CC(C)c1ccc(NC(=O)Cn2cnc3c2c(=O)n(C)c(=O)n3C)cc1,IRF Lucia reporter activity,RAW-Dual [2]; [5],1.04
CC(C)c1ccc(NC(=O)Cn2cnc3c2c(=O)n(C)c(=O)n3C)cc1 (library stock concentration (final ~1000-fold dilution): 10 mM),IRF Lucia reporter activity,RAW-Dual [1]; [4],1.01
same,IRF Lucia reporter activity,RAW-Dual [1]; agonist: LPS (TLR4) 0.1 ug/mL,0.982
COc1cc(C2Oc3cc(C4Oc5cc(O)cc(O)c5C(=O)C4O)ccc3OC2CO)ccc1O (stereo not given) (library stock concentration (final ~1000-fold dilution): 10 mM),IRF Lucia reporter activity,RAW-Dual [1]; [4],0.929
same,IRF Lucia reporter activity,RAW-Dual [1]; agonist: LPS (TLR4) 0.1 ug/mL,0.985
CCC(CC)n1ccc2c(C(=O)NCc3c(C)cc(C)[nH]c3=O)cc(C#N)cc21 (library stock concentration (final ~1000-fold dilution): 10 mM),IRF Lucia reporter activity,RAW-Dual [1]; [4],0.875
same,IRF Lucia reporter activity,RAW-Dual [1]; agonist: LPS (TLR4) 0.1 ug/mL,1.01
CCNC(=O)c1[nH]nc(-c2cc(Cl)c(O)cc2O)c1-c1ccc(OC)cc1,IRF Lucia reporter activity,RAW-Dual [2]; [5],0.971
CCNC(=O)c1[nH]nc(-c2cc(Cl)c(O)cc2O)c1-c1ccc(OC)cc1 (library stock concentration (final ~1000-fold dilution): 10 mM),IRF Lucia reporter activity,RAW-Dual [1]; [4],0.645
same,IRF Lucia reporter activity,RAW-Dual [1]; agonist: LPS (TLR4) 0.1 ug/mL,1.16
CC(C)(C)C(=O)N1N=CCC1c1ccccc1 (stereo not given) (library stock concentration (final ~1000-fold dilution): 10 mM),IRF Lucia reporter activity,RAW-Dual [1]; [4],0.99 ± 0.053
same,IRF Lucia reporter activity,RAW-Dual [1]; agonist: LPS (TLR4) 0.1 ug/mL,0.981 ± 0.079
CC(C)C(C(=O)Nc1ccc(C(=O)NO)cc1)c1ccccc1 (stereo not given),IRF Lucia reporter activity,RAW-Dual [2]; [5],1.09
CC(C)C(C(=O)Nc1ccc(C(=O)NO)cc1)c1ccccc1 (stereo not given) (library stock concentration (final ~1000-fold dilution): 10 mM),IRF Lucia reporter activity,RAW-Dual [1]; [4],0.983
same,IRF Lucia reporter activity,RAW-Dual [1]; agonist: LPS (TLR4) 0.1 ug/mL,0.312
O=C(/C=C/c1ccccc1)NC(NC(=S)Nc1cccc2cccnc12)C(Cl)(Cl)Cl (stereo not given),IRF Lucia reporter activity,RAW-Dual [2]; [5],0.711
O=C(/C=C/c1ccccc1)NC(NC(=S)Nc1cccc2cccnc12)C(Cl)(Cl)Cl (stereo not given) (library stock concentration (final ~1000-fold dilution): 10 mM),IRF Lucia reporter activity,RAW-Dual [1]; [4],0.649
same,IRF Lucia reporter activity,RAW-Dual [1]; agonist: LPS (TLR4) 0.1 ug/mL,0.664
Cl.Cl.Clc1ccc(Nc2nnc(Cc3ccncc3)c3ccccc23)cc1 (library stock concentration (final ~1000-fold dilution): 10 mM),IRF Lucia reporter activity,RAW-Dual [1]; [4],0.738
same,IRF Lucia reporter activity,RAW-Dual [1]; agonist: LPS (TLR4) 0.1 ug/mL,0.672
Cl.Cl.Clc1ccc(Nc2nnc(Cc3ccncc3)c3ccccc23)cc1,IRF Lucia reporter activity,RAW-Dual [2]; [5],0.847
Fc1ccc(Cl)cc1-c1nc(Nc2ccncc2)c2nccnc2n1 (library stock concentration (final ~1000-fold dilution): 10 mM),IRF Lucia reporter activity,RAW-Dual [1]; [4],0.7
same,IRF Lucia reporter activity,RAW-Dual [1]; agonist: LPS (TLR4) 0.1 ug/mL,1.14
C[n+]1cc2c3c(ccc2c2ccc4cc5c(cc4c21)OCO5)OCO3 (library stock concentration (final ~1000-fold dilution): 10 mM),IRF Lucia reporter activity,RAW-Dual [3]; [4],0.0185 and 0.014
same,IRF Lucia reporter activity,RAW-Dual [3]; agonist: LPS (TLR4) 0.1 ug/mL,0.021 and 0.0137
C[n+]1cc2c3c(ccc2c2ccc4cc5c(cc4c21)OCO5)OCO3,IRF Lucia reporter activity,RAW-Dual [2]; [6],0.0204
Cc1cc(C)c(Nc2ccnc(Nc3ccc(C#N)cc3)n2)c(C)c1,IRF Lucia reporter activity,RAW-Dual [2]; [6],1.7
Cc1cc(C)c(Nc2ccnc(Nc3ccc(C#N)cc3)n2)c(C)c1 (library stock concentration (final ~1000-fold dilution): 10 mM),IRF Lucia reporter activity,RAW-Dual [3]; [4],0.691
same,IRF Lucia reporter activity,RAW-Dual [3]; agonist: LPS (TLR4) 0.1 ug/mL,0.81
O=C(c1ccc(Nc2nccc(-c3cc4ccccc4s3)n2)cc1)N1CCC(N2CCCC2)CC1,IRF Lucia reporter activity,RAW-Dual [2]; [6],0.431 ± 0.58
O=C(c1ccc(Nc2nccc(-c3cc4ccccc4s3)n2)cc1)N1CCC(N2CCCC2)CC1 (library stock concentration (final ~1000-fold dilution): 10 mM),IRF Lucia reporter activity,RAW-Dual [3]; [4],0.0152 and 0.00671
same,IRF Lucia reporter activity,RAW-Dual [3]; agonist: LPS (TLR4) 0.1 ug/mL,0.0151 and 0.00623
Cc1nn(-c2ccccc2)c(C)c1/C=N/N1CCN(Cc2ccccc2)CC1 (library stock concentration (final ~1000-fold dilution): 10 mM),IRF Lucia reporter activity,RAW-Dual [1]; [4],0.981
same,IRF Lucia reporter activity,RAW-Dual [1]; agonist: LPS (TLR4) 0.1 ug/mL,1.44
Cc1nn(-c2ccccc2)c(C)c1/C=N/N1CCN(Cc2ccccc2)CC1,IRF Lucia reporter activity,RAW-Dual [2]; [5],1.01
O=c1cc(-c2ccc(O)c(O)c2)oc2cc(OC3OC(CO)C(O)C(O)C3O)cc(O)c12 (stereo not given) (library stock concentration (final ~1000-fold dilution): 10 mM),IRF Lucia reporter activity,RAW-Dual [1]; [4],0.883
same,IRF Lucia reporter activity,RAW-Dual [1]; agonist: LPS (TLR4) 0.1 ug/mL,0.857
O=c1[nH]c(=O)n(C2CC(O)C(CO)O2)cc1F (stereo not given),IRF Lucia reporter activity,RAW-Dual [2]; [6],0.911
O=c1[nH]c(=O)n(C2CC(O)C(CO)O2)cc1F (stereo not given) (library stock concentration (final ~1000-fold dilution): 10 mM),IRF Lucia reporter activity,RAW-Dual [3]; [4],0.79
same,IRF Lucia reporter activity,RAW-Dual [3]; agonist: LPS (TLR4) 0.1 ug/mL,0.787
